1 molecule from paper PMC7708041 can be followed below.

Test [1] concerns the target T1, Tof1, codon-optimised wildtype, C terminally TAP tagged (S. cerevisiae) (UniProt P53840).
T1 sequence: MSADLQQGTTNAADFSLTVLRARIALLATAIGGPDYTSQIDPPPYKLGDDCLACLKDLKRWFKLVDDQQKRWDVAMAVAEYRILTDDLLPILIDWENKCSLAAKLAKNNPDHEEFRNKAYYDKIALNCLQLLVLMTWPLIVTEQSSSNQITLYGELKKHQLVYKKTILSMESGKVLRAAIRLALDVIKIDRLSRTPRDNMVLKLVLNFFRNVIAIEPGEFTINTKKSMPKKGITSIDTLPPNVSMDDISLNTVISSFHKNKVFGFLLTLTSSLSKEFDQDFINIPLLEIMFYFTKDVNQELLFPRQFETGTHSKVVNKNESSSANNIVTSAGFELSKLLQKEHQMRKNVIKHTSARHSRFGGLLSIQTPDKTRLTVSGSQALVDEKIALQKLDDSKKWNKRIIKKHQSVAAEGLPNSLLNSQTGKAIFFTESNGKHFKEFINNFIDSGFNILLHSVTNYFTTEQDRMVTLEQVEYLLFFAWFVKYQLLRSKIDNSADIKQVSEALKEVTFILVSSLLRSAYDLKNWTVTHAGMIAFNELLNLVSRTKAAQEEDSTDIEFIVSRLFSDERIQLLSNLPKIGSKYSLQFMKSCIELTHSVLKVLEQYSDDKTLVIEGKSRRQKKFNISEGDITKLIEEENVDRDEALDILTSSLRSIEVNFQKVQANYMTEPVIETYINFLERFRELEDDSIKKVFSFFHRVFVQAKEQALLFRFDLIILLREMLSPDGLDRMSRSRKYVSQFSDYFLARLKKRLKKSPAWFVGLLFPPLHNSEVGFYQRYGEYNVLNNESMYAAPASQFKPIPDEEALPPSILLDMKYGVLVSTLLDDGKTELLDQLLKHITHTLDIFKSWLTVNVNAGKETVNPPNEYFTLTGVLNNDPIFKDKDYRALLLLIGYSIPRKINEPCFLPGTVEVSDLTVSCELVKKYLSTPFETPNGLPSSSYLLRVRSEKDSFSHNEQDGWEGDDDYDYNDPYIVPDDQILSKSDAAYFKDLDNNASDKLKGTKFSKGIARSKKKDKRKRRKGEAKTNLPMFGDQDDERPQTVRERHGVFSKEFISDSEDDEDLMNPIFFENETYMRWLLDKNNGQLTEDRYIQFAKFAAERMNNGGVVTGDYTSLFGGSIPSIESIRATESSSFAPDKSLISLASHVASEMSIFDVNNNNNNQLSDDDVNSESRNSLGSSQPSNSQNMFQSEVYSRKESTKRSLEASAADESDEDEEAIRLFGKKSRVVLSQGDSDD
Put plainly: co-IP; TAP-tagged Tof1 proteins captured on IgG Sepharose from cleared lysates of exponentially growing yeast; 2 h, 4°C; lysis buffer 50 mM HEPES pH 7.5, 300 mM KCl, 5 mM EDTA, 10 mM MgOAc, 10% glycerol, 0.01% Triton X-100; eluted in 0.2 M glycine pH 3.0; western blot with anti-Csm3.

Test [2] has as its target T2, tof1 997 truncation protein, C terminally TAP tagged (S. cerevisiae) (UniProt P53840).
T2 sequence: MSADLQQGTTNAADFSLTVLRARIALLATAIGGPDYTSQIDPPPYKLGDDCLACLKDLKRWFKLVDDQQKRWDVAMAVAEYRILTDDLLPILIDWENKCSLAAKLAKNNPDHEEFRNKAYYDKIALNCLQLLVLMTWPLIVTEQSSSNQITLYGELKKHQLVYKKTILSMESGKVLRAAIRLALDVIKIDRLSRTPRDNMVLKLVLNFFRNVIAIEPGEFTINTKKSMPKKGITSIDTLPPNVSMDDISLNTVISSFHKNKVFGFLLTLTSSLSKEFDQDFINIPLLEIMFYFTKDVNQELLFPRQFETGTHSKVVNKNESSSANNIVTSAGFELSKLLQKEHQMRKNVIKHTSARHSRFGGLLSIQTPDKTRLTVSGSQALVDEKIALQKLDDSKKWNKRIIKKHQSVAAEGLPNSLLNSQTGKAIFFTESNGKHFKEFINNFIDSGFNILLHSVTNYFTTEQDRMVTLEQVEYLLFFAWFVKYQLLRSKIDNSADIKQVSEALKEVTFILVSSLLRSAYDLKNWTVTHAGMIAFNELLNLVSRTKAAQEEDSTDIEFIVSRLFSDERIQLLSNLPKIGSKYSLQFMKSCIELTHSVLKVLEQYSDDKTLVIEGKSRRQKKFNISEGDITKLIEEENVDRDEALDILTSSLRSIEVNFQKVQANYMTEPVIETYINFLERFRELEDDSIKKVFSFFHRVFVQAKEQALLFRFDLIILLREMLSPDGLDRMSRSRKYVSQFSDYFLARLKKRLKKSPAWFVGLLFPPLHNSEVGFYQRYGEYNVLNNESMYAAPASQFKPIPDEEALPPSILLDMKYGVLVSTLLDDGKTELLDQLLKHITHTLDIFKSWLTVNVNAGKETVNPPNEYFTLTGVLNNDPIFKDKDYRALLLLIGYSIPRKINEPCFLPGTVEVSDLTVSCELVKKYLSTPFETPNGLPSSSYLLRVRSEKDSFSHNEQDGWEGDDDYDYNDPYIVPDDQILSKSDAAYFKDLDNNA
The test is described as above.

Results are given in words; binding and its absence hold for the method and conditions named. In cells and extracts the contact can be indirect. Some results given as binding are weak or reduced against the parent protein; the word gives no strength. Sequences can lack the tags named with a protein.

B1: Csm3 (protein, UniProt Q04659 1-317)
chain: MDQDFDSLLLGFNDSDSVQKDPTVPNGLDGSVVDPTIADPTAITARKRRPQVKLTAEKLLSDKGLPYVLKNAHKRIRISSKKNSYDNLSNIIQFYQLWAHELFPKAKFKDFMKICQTVGKTDPVLREYRVSLFRDEMGMSFDVGTRETGQDLERQSPMVEEHVTSAEERPIVADSFAQDKRNVNNVDYDNDEDDDIYHLSYRNRRGRVLDERGNNETVLNNVVPPKEDLDALLKTFRVQGPVGLEENEKKLLLGWLDAHRKMEKGSMTEEDVQLIQSLEEWEMNDIEGQHTHYDLLPGGDEFGVDQDELDAMKEMGF
Consider B1, for which the binding entry in test [1] and in test [2] was “binds” throughout.
